Here are results for 56 compounds from PMC4336329 (PLoS ONE, 2015).

About 2,200 (0.71%) of roughly 310,000 compounds showed an effect of 50% or more. Effects have a minus sign here. Some of the results follow.

Chain of human ether-à-go-go-related gene (hERG) potassium channel (Q12809 whole entry, looked up): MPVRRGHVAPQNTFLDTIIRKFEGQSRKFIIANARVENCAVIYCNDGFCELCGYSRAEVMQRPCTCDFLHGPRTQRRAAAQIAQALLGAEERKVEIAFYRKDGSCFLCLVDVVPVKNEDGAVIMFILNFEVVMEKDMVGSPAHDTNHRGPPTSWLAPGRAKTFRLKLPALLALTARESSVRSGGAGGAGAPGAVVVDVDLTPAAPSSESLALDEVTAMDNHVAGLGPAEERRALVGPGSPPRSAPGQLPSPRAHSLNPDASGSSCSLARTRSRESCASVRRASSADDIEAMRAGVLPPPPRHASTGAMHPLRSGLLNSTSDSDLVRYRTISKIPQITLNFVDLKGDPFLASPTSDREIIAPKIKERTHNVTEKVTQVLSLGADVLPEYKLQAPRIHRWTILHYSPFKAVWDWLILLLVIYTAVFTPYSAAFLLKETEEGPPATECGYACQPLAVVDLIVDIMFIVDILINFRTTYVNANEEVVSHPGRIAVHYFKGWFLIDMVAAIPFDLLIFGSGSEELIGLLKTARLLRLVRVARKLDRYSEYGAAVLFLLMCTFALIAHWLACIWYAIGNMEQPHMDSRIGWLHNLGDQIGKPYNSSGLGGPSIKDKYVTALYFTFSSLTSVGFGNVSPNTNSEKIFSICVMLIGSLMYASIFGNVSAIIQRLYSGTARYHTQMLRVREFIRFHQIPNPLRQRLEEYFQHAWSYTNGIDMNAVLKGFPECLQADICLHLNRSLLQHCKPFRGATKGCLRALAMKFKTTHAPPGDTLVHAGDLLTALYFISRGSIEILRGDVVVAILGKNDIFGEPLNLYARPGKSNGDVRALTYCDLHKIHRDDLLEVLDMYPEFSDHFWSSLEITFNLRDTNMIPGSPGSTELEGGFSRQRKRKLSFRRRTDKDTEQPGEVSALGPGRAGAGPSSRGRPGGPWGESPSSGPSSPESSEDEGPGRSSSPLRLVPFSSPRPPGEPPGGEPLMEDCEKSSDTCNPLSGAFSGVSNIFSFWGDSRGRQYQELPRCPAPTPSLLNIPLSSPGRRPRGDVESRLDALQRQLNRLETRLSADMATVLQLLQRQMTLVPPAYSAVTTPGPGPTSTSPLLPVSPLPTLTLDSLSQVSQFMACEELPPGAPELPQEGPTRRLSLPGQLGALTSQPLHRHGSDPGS

The assay addresses human ether-à-go-go-related gene (hERG) potassium channel (human, UniProt Q12809). Put plainly: primary screen, population patch clamp on CHO cells stably expressing hERG.
For the compound `COc1cc(C(=O)NCCN2CCOCC2)cc(OC)c1OC`, the “hERG current change (%, negative = inhibition) at 1uM” value was determined as 15.7%.

For `CCC(C)NC(=O)CSc1c2c(nc3ccccc13)CCCC2` (centres unmarked), the “hERG current change (%, negative = inhibition) at 1uM” value turned out to be 1.42%.

Take `CCn1c(C)cc(C(=O)CSc2nnnn2C2CCCC2)c1C`: the “hERG current change (%, negative = inhibition) at 1uM” value is given as -9.53%.

Take `CN(C)c1cc[n+](CC(=O)c2ccc(-c3ccccc3)cc2)cc1.[Cl-]`: the “hERG current change (%, negative = inhibition) at 1uM” value is recorded as 13.1%.

With `CC(=O)Nc1ccc(S(=O)(=O)N2CCN(C(=O)c3ncoc3-c3cccc(C)c3)CC2)cc1`, the “hERG current change (%, negative = inhibition) at 1uM” value was found to be 10.2%.

For `CCC(CC)c1nnc(NC(=O)CN2C(=O)C3C4C=CC(C4)C3C2=O)s1` (centres unmarked), the “hERG current change (%, negative = inhibition) at 1uM” value is given as 4.46%.

Regarding `O=C(CN1CCN(c2cccc(Cl)c2)CC1)Nc1ccc([N+](=O)[O-])cc1C(=O)Nc1ccccc1F`, the “hERG current change (%, negative = inhibition) at 1uM” value worked out at 11.4%.

Take `CCCCC(=O)NCCc1cc2c(OC)ccc(OC)c2[nH]c1=O`: the “hERG current change (%, negative = inhibition) at 1uM” value was found to be 11.9%.

As to `C/C(=N\NC(=O)CNc1cccc(C(F)(F)F)c1)c1ccc(Br)cc1`, the “hERG current change (%, negative = inhibition) at 1uM” value came out at 14.2%.

With `COc1cccc(/C=N/Nc2ccc(C(=O)O)cc2)c1O`, the “hERG current change (%, negative = inhibition) at 1uM” value was found to be 8.08%.

On to `CCn1c(SCC(=O)NC2CC2)nnc1-c1cccc(OC)c1`, for which the “hERG current change (%, negative = inhibition) at 1uM” value is listed as 17.5%.

`Cc1ccc(NP(=O)(c2ccc(N(C)C)cc2NC(=O)c2cccs2)N2CCOCC2)cc1` (centres unmarked): the “hERG current change (%, negative = inhibition) at 1uM” value worked out at 3.35%.

As for `O=C(COC(=O)c1ccc2[nH]c3c(c2c1)CCCC3)Nc1ccccc1`, the “hERG current change (%, negative = inhibition) at 1uM” value amounted to 16.7%.

`CCN(CC)C(=O)C(=O)N/N=C/c1ccc(F)cc1`: the “hERG current change (%, negative = inhibition) at 1uM” value is listed as 10.7%.

As for `COc1ccccc1NC(=O)C(=O)NCC1COc2ccccc2O1` (centres unmarked), the “hERG current change (%, negative = inhibition) at 1uM” value was determined as 4.85%.

Consider `CC(=O)c1c(N2CCN(c3ccc(F)cc3)CC2)nc(=S)n(-c2ccccc2)c1C`, for which the “hERG current change (%, negative = inhibition) at 1uM” value was -69.3%.

Take `Cc1cc(NC(=O)c2ccc(F)cc2)ccc1NC(=O)c1ccco1`: the “hERG current change (%, negative = inhibition) at 1uM” value is 11.5%.

On to `O=C(NCC(c1cccnc1)N1CCN(c2ccccc2F)CC1)c1ccco1` (centres unmarked), for which the “hERG current change (%, negative = inhibition) at 1uM” value was 11.5%.

For `Cc1ccc(-c2nc(CS(=O)CC(=O)NCCN3CCCC3)c(C)o2)cc1` (centres unmarked), the “hERG current change (%, negative = inhibition) at 1uM” value was determined as 1.33%.

Consider `CCOc1ccccc1N1CCN(C(=O)NCc2ccc(Cl)cc2)CC1`, for which the “hERG current change (%, negative = inhibition) at 1uM” value turned out to be 7.28%.

With `c1cncc(-c2nn3c(Cn4cnc5ccccc54)nnc3s2)c1`, the “hERG current change (%, negative = inhibition) at 1uM” value is 4.29%.

As to `COc1ccccc1-c1coc2cc(OC(=O)N3CCOCC3)ccc2c1=O`, the “hERG current change (%, negative = inhibition) at 1uM” value is 11.2%.

Take `CCOC(=O)C1=C(c2ccccc2)OC(N)=C(C#N)C1c1ccncc1` (centres unmarked): the “hERG current change (%, negative = inhibition) at 1uM” value is 10.5%.

On to `CC(C)CCN1CCN(Cc2cccc3nonc23)CC1CCO` (centres unmarked), for which the “hERG current change (%, negative = inhibition) at 1uM” value turned out to be 8.74%.

For `COc1ccc(Cl)c2sc(N(Cc3cccnc3)C(C)=O)nc12`, the “hERG current change (%, negative = inhibition) at 1uM” value is 11.5%.

With `O=C(CN1CCN(CC(=O)Nc2ccc(F)cc2)CC1)NCC1(N2CCOCC2)CCCCC1`, the “hERG current change (%, negative = inhibition) at 1uM” value is -20.7%.

Consider `CCOc1ccc(NC(=O)c2ccc(CSc3nnc(C)s3)cc2)cc1`, for which the “hERG current change (%, negative = inhibition) at 1uM” value is 8.09%.

`CCN(C(=O)CN1CCN(S(=O)(=O)c2ccccc2C(F)(F)F)CC1)c1c(N)n(Cc2ccccc2)c(=O)[nH]c1=O`: the “hERG current change (%, negative = inhibition) at 1uM” value is reported as 9.18%.

For the compound `Cc1nn(Cc2cccc(C(=O)N3N=C(C(F)F)CC3(O)C(F)F)c2)c(C)c1[N+](=O)[O-]` (centres unmarked), the “hERG current change (%, negative = inhibition) at 1uM” value was -11.2%.

Turning to `CC(=O)Nc1ccccc1Nc1cc(C#N)c(C#N)cc1[N+](=O)[O-]`, the “hERG current change (%, negative = inhibition) at 1uM” value amounted to 4.12%.

In the case of `COc1cc2c(cc1OC)C(c1ccc(Cl)cc1)=NCC2`, the “hERG current change (%, negative = inhibition) at 1uM” value is recorded as -2.34%.

Consider `CC(NC(=O)CSc1nc2ccccc2n1C)c1ccccc1` (centres unmarked), for which the “hERG current change (%, negative = inhibition) at 1uM” value came to 6.28%.

As to `OC(CN1CCCCC1)Cn1c2ccc(Cl)cc2c2cc(Cl)ccc21` (centres unmarked), the “hERG current change (%, negative = inhibition) at 1uM” value came out at 8.82%.

For `CC(=O)c1cn(C2OC(CO)C3OC(C)(C)OC32)c(=O)n(C)c1=O` (centres unmarked), the “hERG current change (%, negative = inhibition) at 1uM” value turned out to be 13.2%.

As for `N#CCCn1cc(C(=O)Nc2ccccc2Br)c(-c2ccc([N+](=O)[O-])cc2)n1`, the “hERG current change (%, negative = inhibition) at 1uM” value was -5.15%.

With `COc1ccccc1NC(=O)CN1CCCCCC1`, the “hERG current change (%, negative = inhibition) at 1uM” value was 14.7%.

For `CCNC(=S)N(Cc1cccs1)Cc1cc2cc(OCC)ccc2[nH]c1=O`, the “hERG current change (%, negative = inhibition) at 1uM” value turned out to be 12.9%.

On to `Cc1nnsc1C(=O)NC(C)C12CC3CC(CC(C3)C1)C2` (centres unmarked), for which the “hERG current change (%, negative = inhibition) at 1uM” value was 10.4%.

Turning to `O=C(NCC(=O)N1CCOCC1)c1ccc(Br)cc1`, the “hERG current change (%, negative = inhibition) at 1uM” value turned out to be 5.61%.

Consider `COc1ccccc1Oc1ccc(S(=O)(=O)NCc2ccccn2)cc1`, for which the “hERG current change (%, negative = inhibition) at 1uM” value was 5.13%.

For `Cc1ccc(S(=O)(=O)NCCC(=O)NC2CC2)cc1`, the “hERG current change (%, negative = inhibition) at 1uM” value worked out at 16.6%.

For the compound `CC(C)CN(C)C(=O)CCc1nnc(Cc2cccc(C(F)(F)F)c2)o1`, the “hERG current change (%, negative = inhibition) at 1uM” value is 15.2%.

Take `C/C(=N\NC(=O)c1nn(C)cc1Br)c1cccc(NC(=O)C(C)(C)C)c1`: the “hERG current change (%, negative = inhibition) at 1uM” value was determined as 8.22%.

For `CCN(CC)S(=O)(=O)c1cc(C(=O)Nc2ccccc2C(=O)O)ccc1OC`, the “hERG current change (%, negative = inhibition) at 1uM” value was found to be 18.6%.

Consider `O=C(O)c1ccc(CNS(=O)(=O)c2ccc(Oc3ccccc3Cl)cc2)cc1`, for which the “hERG current change (%, negative = inhibition) at 1uM” value came to 17.3%.

`COc1ccc(-c2cc(C(=O)OCC(=O)Nc3ccc4c(c3)OCO4)c3ccccc3n2)cc1`: the “hERG current change (%, negative = inhibition) at 1uM” value is 4.36%.

As to `FC(F)(F)c1cccc(Cn2nnnc2-c2ccc(Cl)cc2)c1`, the “hERG current change (%, negative = inhibition) at 1uM” value came to 22.3%.

As to `Nc1nccc(-c2cccs2)n1`, the “hERG current change (%, negative = inhibition) at 1uM” value is recorded as 9.87%.

For the compound `N/C(=N\OC(=O)c1cccc2ccccc12)c1ccncc1`, the “hERG current change (%, negative = inhibition) at 1uM” value turned out to be 5.77%.

For `Cc1nn(Cc2c(F)c(F)c(F)c(F)c2F)c(C)c1NC(=O)c1nn(C)cc1[N+](=O)[O-]`, the “hERG current change (%, negative = inhibition) at 1uM” value is -7.91%.

With `CCOc1ccccc1N1CCN(C(=O)c2cc3c(s2)CCC3)CC1`, the “hERG current change (%, negative = inhibition) at 1uM” value was found to be 9.09%.

For `COc1ccc(OC(=O)c2cccnc2)cc1`, the “hERG current change (%, negative = inhibition) at 1uM” value came out at 8.02%.

As for `CCOC(=O)COc1nc(-c2ccccc2)cc(-c2ccco2)c1C#N`, the “hERG current change (%, negative = inhibition) at 1uM” value is recorded as 14.3%.

As for `CCC(=O)N1CCc2cc(Br)cc(S(=O)(=O)N3CCCC(C(=O)NC(C)(C)C)C3)c21` (centres unmarked), the “hERG current change (%, negative = inhibition) at 1uM” value is listed as 16.2%.

As to `CCN(c1ccccc1)S(=O)(=O)c1ccc(NC(=O)c2nc(S(C)(=O)=O)ncc2Cl)cc1`, the “hERG current change (%, negative = inhibition) at 1uM” value amounted to 4.74%.

Regarding `CSc1nc(-c2ccccc2)nn1S(=O)(=O)c1ccccc1`, the “hERG current change (%, negative = inhibition) at 1uM” value is listed as 3.41%.
